In this assay the target is 5-HT2C receptor (Homo sapiens, UniProt P28335). The following applies: FIG. 15, FIG. 16A/B.

As to `CCN(CC)C(=O)[C@@H]1C=C2c3cccc4[nH]c(Br)c(c34)C[C@H]2N(C)C1` [E559, (5R, 8R)-2-Bromo-9,10-didehydro-N,N-diethyl-6-methylergoline-8-carboxamide hemi-D-tartrate], the “functional activity at 5-HT2C” value is on record as “exhibits partial agonism at 5-HT2C”.

These data come from patent US12331051B2 (priority 2021, dated 2025).
